Data from PubChem BioAssay AID493208 (National Center for Advancing Translational Sciences (NCATS), 2011).
Out of some 44,000 compounds screened, about 340 (0.77%) were called active. Roughly 5% stayed inconclusive and do not appear here. Calls follow the shape of the dose curve; as a rule, active = well fitted inhibition curve with a large enough effect; inconclusive = small, poorly fitted or top-dose-only effect; inactive = flat fitted curve, though single readings scatter. The list shows a part of the results.

Test: Acumen qHTS Assay for Inhibitors of the mTORC1 Signaling Pathway in MEF (Tsc2-/-, p53-/-) Cells: Sytravon;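 also: plate controls were DMSO for no effect and rapamycin for full effect; nearly all actives have a fitted effect of over 50% in size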
Conditions: phospho-rpS6 immunofluorescence/PI, 24 h; series mostly up to 38.3 µM; activity change, negative = inhibition: at the top concentration
Procedure, shortened: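 Immunofluorescence of rpS6 phosphorylation in Tsc2-/-, p53-/- MEFs after 24 h compound exposure, normalized to propidium iodide signal. Activity is expressed as % positive cells, thresholded with 7.5 nM rapamycin.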

Activity change, negative = inhibition, inactive:
CCOC(=O)c1c(C)[nH]c(C)c1S(=O)(=O)N(C)CC(=O)NCc1ccc(C)cc1 -1.34%
CCOc1cccc(CNC(=O)c2ccc(N3CCCC3)c(NC(=O)Nc3ccccc3CC)c2)c1 0%
COc1ccc(C2CC(=O)c3cc(-c4nc(-c5ccc(C)cc5)cs4)c(=O)[nH]c3C2)cc1 (stereo not given) -0.363%
CC(C)c1ccc(NC(=O)Cc2ccc(NC(=O)N3CCCCc4ccccc43)cc2)cc1 -15.1%
CCC1CN(C(=O)NCc2ccc(F)cc2)c2cc(Cl)ccc2O1 (stereo not given) -17.6%
CCCCOc1ccc(CNC(=O)CN2C(=O)CCn3nc(-c4cn(C)c5ccccc45)cc32)cc1 -17.6%
COc1ccc(NC(=O)C2CCCN(S(=O)(=O)c3c(C)[nH]c(=O)[nH]c3=O)C2)cc1 (stereo not given) 4.02%
COc1cc(OC)c(NC(=O)CC(C)S(=O)(=O)c2ccc3c(c2)NC(=O)CO3)cc1Cl (stereo not given) -7.96%
CCn1cc(S(=O)(=O)c2ccc(OC)cc2)c(=O)c2cc(F)c(N3CCCCCC3)cc21 0.89%
COc1ccc(S(=O)(=O)NCCc2csc(-c3cccc(F)c3)n2)cc1OC -6.1%
CCOc1ccc(/C=C/C(=O)Nc2sc3c(c2C(=O)OC)CCCC3)cc1 -8.27%
Nc1nc(Nc2cccc(Cl)c2)sc1C(=O)c1ccc(F)cc1 -9.03%
COc1ccc(-c2nn(-c3ccc(C)c(Cl)c3)c3c2cnc2cc(OC)c(OC)cc23)cc1 0%
CCN1CCN(c2nc3c(S(=O)(=O)c4ccc(C)cc4)nnn3c3ccsc23)CC1 3.19%
CCN(CC)S(=O)(=O)c1ccc2c(c1)N(CC(=O)NCCc1ccccc1)C(=O)CO2 -0.174%
CCC(Oc1ccccc1)C(=O)Nc1cc(-c2ccccc2F)nn1-c1ccccc1 (stereo not given) -3.07%
CCOc1ccc2nc(N3CCCC(C(=O)Nc4ccc(CC)cc4)C3)sc2c1 (stereo not given) -6.9%
CCc1ccc2oc(-c3cccc(NC(=O)COc4ccccc4Cl)c3)nc2c1 -7.58%
CCOc1ccc(NC(=O)CSc2nc3ccsc3c(=O)n2CC)cc1 -9.3%
COc1cc(NC(=O)C(CC(C)C)N2Cc3ccccc3C2=O)cc(OC)c1 (stereo not given) -0.63%
Cc1ccc(NC(=O)Cn2c(=O)nc(-c3ccccc3)c3ccccc32)cc1 0%
Cc1cccc(C(=O)n2nc(-c3cccnc3)nc2NCc2ccc(F)cc2)c1 -1.25%
Cc1c(C(=O)NCc2cccc(F)c2)oc2c1-c1[nH]ncc1CC2 -1.1%
CCCCOc1ccc(CNC(=O)c2cnc3sc(N4CCCCCC4)nn3c2=O)cc1 -1.41%
CCCCNC(=O)CCn1nc(-c2ccc(Cl)cc2)c2ccccc2c1=O -0.465%
COc1ccc(-c2cc(C)no2)cc1S(=O)(=O)N1CCCC(C)C1 (stereo not given) 4.57%
CC(C)CCNC(=O)c1cc(-c2ccc(Br)s2)nc2ccccc12 -18.5%
Cn1c(=O)[nH]c(=O)c2c1nc(CN1CCN(c3ccccc3)CC1)n2Cc1c(F)cccc1Cl 2.5%
Cc1cccc(NC(=O)c2ccc3[nH]c(C)cc(=O)c3c2)c1 -0.761%
CC(C)(C)c1ccc(C(=O)Nc2ccc(NC(=O)c3ccc(Cl)c(Cl)c3)cc2)cc1 -10.2%
CCC(=O)N1CCc2cc(S(=O)(=O)NC(Cc3ccccc3)C(=O)NCc3ccccc3OC)ccc21 (stereo not given) -8.24%
Cc1cccc(CCNC(=O)c2cc3c(=O)[nH]c4ccc(C)cc4c3s2)c1 -2.75%
COc1ccccc1CNc1nc2ccccc2c2nc(-c3cccc(C)c3)nn12 -3.22%
COc1ccc(-c2nc3sc(CCNC(=O)C(=O)Nc4cc(F)ccc4F)c(C)n3n2)cc1 0.844%
COc1cc([N+](=O)[O-])ccc1NC(=O)N1CCC2(CC1)Nc1ccccc1-n1cccc12 3.3%
COc1ccc2cc3cc(C(=O)N4CCN(c5cccc(C(F)(F)F)c5)CC4)sc3nc2c1 5.25%
CCn1cc(C(=O)NCCN(CC(C)C)CC(C)C)c(=O)c2cc(S(=O)(=O)N(C)C3CCCCC3)ccc21 -11%
CCOCCCn1c(SCC(=O)NCc2ccccc2)nc2c(sc3ccccc32)c1=O -0.996%
Cn1c(=O)n(C)c2cc(N3CCOCC3)c(NC(=O)c3ccc(C(C)(C)C)cc3)cc21 -0.965%
COc1ccc(NC(=O)c2nnn(CC(=O)Nc3cccc(C)c3C)c2N)c(OC)c1 -1.18%
CCCCOc1ccccc1Cn1c(=O)sc2ccccc21 -8.28%
CCOc1ccc(C(=O)Nc2cccc(NC(=O)c3ccc(Cl)cc3Cl)c2)cc1 6.47%
Cc1cccc(NC(=O)CN(C)S(=O)(=O)c2ccc3c(c2)CCC(=O)N3)c1C 4.66%
Cc1ccc(Nc2nc3ccccc3nc2-n2nc(C)cc2C)c(Cl)c1 -3.62%
CCc1cccc(N2C(=O)CS(=O)(=O)C23C(=O)N(Cc2ccccc2)c2ccc(C)cc23)c1 (stereo not given) -3.45%
CSc1ccc(CNC(=O)c2sc3ncnc(N(C)C4CCCCC4)c3c2C)cc1 -0.614%
Cc1cccc(C(=O)N2c3ncnn3C3(CCCCC3)[C@@H]3CCCC[C@@H]32)c1 -9.12%
CCOc1ccc(CN2C(=O)C(=O)c3cccc(C)c32)cc1OC -21.5%
Cc1cccc(Nc2cc(C)nc(-n3nc(C)cc3C)n2)c1 -4.26%
Cc1c(C(=O)Nc2ccc(F)cc2)oc2ccc(S(=O)(=O)N3CCCCCC3)cc12 -4.65%
CCOC(=O)c1cccc(NS(=O)(=O)c2ccc(-c3coc(C)n3)cc2)c1 -16.4%
Cc1cc(C)c(NC(=O)C2CCN(C(=O)N3CCOc4ccccc43)CC2)c(C)c1 -2.09%
COC(=O)c1ccc2c(=O)n(CCc3ccc(S(N)(=O)=O)cc3)c(SCC(=O)C(C)(C)C)nc2c1 -1.66%
Cc1ccc(-c2c3c(=O)n(C)c(=O)n(C)c3c3cnc4ccccc4n23)cc1 -7.43%
Cc1ccc(S(=O)(=O)CC(=O)Nc2nc3c(C)cccc3s2)cc1 0.594%
CSc1ccc(/C=C/c2nc3ccccc3n2S(=O)(=O)c2ccc(Br)cc2)cc1 -18%
Cc1ccc(N2CCN(Cc3nnc(-c4ccccc4F)o3)CC2)c(C)c1 -8.48%
CCOC(=O)c1c(C)[nH]c(C)c1S(=O)(=O)N1CCCC(C(=O)Nc2cccc(CC)c2)C1 (stereo not given) 0%
CCOc1ccc(NC(=O)CCc2c(C)nc3nc(-c4cc(OC)cc(OC)c4)nn3c2C)cc1 -8.73%
COc1cccc(NC(=O)/C(C#N)=C/c2c(C)n(Cc3ccccc3)c3ccccc23)c1 2.25%
CC(=O)N1CCc2cc(Br)cc(S(=O)(=O)NCCc3cccc(C)c3)c21 -0.281%
Fc1ccc(C(NCCc2ccc(Cl)cc2)c2nnc(-c3ccccc3Cl)o2)cc1 (stereo not given) 2.5%
O=C(Nc1ccc(Cl)c(C(F)(F)F)c1)c1nc2ccccc2nc1N1CCCCC1 -6.04%
COc1ccc(-n2nnc(-c3nsc(NC(=O)c4cccc(C)c4)n3)c2C)cc1OC -5.47%
COc1ccc(-c2[nH]c3c(c2-c2c(-n4cccc4)n(C)c(=O)[nH]c2=O)c(=O)[nH]c(=O)n3C)cc1F -4.69%
COc1cccc(NC(=O)Cn2nnc(C(=O)NCc3ccc4c(c3)OCO4)c2N)c1 -13.1%
CCN1CCN(c2ncc3c(n2)CCN(Cc2cccc(F)c2F)C3)CC1 9.51%
COC(=O)c1ccccc1NC(=O)c1nn(C)c2c1COc1ccccc1-2 -1.23%
Cc1cccn2c(=O)c3cc(C#N)c(=O)n(-c4nnc(SCc5ccc(F)cc5)s4)c3nc12 -4.69%
Cc1cc(C)c(NC(=O)CSc2nc(=O)n(Cc3cccnc3)c3c2CCC3)c(C)c1 0.194%
COc1ccccc1Nc1ncc2c(n1)CCN(Cc1cc(F)cc(F)c1)C2 9.1%
N#C/C(=C/c1ccccc1Cl)c1nc2ccccc2c(=O)[nH]1 -3.84%
CCCCCCNC(=O)c1c[nH]c2ccc(S(=O)(=O)N(C)c3ccc(C(C)C)cc3)cc2c1=O 9.57%
COc1ccc(N2CCN(C3(c4ccccc4)C(=O)c4ccccc4C3=O)CC2)cc1 1.54%
Cc1ccc(Cn2c(CO)cnc2SCC(=O)NCc2ccccc2Cl)cc1 -4.59%
Cc1ccc(Cl)cc1N(C)C(=O)c1cc2c(Cl)nc3ccccc3c2s1 -9.8%
O=C(C1CCC(Cn2c(=O)c3sccc3n(Cc3cccc(F)c3)c2=O)CC1)N1CCOCC1 (stereo not given) -1.22%
Cc1cc2nn(-c3ccc(F)cc3)nc2cc1NC(=O)c1cccc([N+](=O)[O-])c1C 3.88%
COc1cccc(OC(=O)CSc2nnc(-c3cccs3)o2)c1 -1.68%
CC(=O)Nc1ccc(Nc2nc3c(S(=O)(=O)c4cc(C)ccc4C)nnn3c3ccsc23)cc1 -2.36%
COc1ccc(N2C(=O)CSC23C(=O)N(CC(=O)Nc2ccccc2F)c2ccccc23)cc1 (stereo not given) 0.16%
COC(=O)c1ccc(Nc2nc(-c3ccccc3Cl)nc3ccccc23)cc1 4.39%
Clc1cccc(-c2nc3ccccn3c2Nc2ccc3c(c2)OCCO3)c1 -3.08%
Cc1cccc(C(=O)Nc2cc3nn(-c4ccc(C(C)C)cc4)nc3cc2C)c1 -10.6%
Cc1cc(OC(C)C(=O)N2CCC(c3nc4ccccc4o3)CC2)ccc1Cl (stereo not given) -0.201%
COc1cccc(CNC(=O)Cn2nc(-c3ccc(C)cc3)ccc2=O)c1 8.29%
Cc1ccc(CSCCNC(=O)C2CCN(S(=O)(=O)Cc3ccccc3)CC2)cc1 0%
CCn1ccc2cc(S(=O)(=O)N3CCCN(C(=O)Nc4cccc(SC)c4)CC3)ccc21 0.419%
CCCNC(=O)C1CCN(C(=O)N2CC(C)Oc3ccccc32)CC1 (stereo not given) 3.12%
COc1ccc(-n2ccnc2SCC(=O)Nc2cccc(OC)c2)cc1 -19.2%
Cc1ccc(CNC(=O)C2CCC(CNS(=O)(=O)c3ccc(C)cc3)CC2)cc1 (stereo not given) -4.19%
CCCCN(C)S(=O)(=O)c1ccc(NC2=NS(=O)(=O)c3ccccc32)cc1 -4.28%
Cc1ccc(NC(=O)Cn2cc(C(=O)c3ccco3)c3ccccc32)cc1C 0.206%
Cc1ccc(-n2nc3c(N4CCC(C(=O)NC5CCCCC5)CC4)nnc(C)c3c2C)cc1 -8.26%
Cc1cc2oc(C(=O)Nc3ccc(S(=O)(=O)N4CCC(C)CC4)cc3)cc(=O)c2cc1C -12%
